# Data from patent US20250019701A1, “TREATMENT FOR INFLAMMATORY DISEASE” (priority 2021, published 2025).
# System: Vero cells
# Conditions: Vero cells 24 and 48 hours post-infection; etifoxine 30 μM, FGIN 1-27 200 nM, PK11195 200 nM, XBD 173 30 μM
row,Structure (SMILES),protection from SARS-CoV-2 triggered cell death / cytotoxicity (qualitative)
1,"CCCCCCN(CCCCCC)C(=O)Cc1c(-c2ccc(F)cc2)[nH]c2ccccc12 [FGIN, FGIN 1-27]",protection
2,CCC(C)N(C)C(=O)c1cc2ccccc2c(-c2ccccc2Cl)n1 (stereo not drawn) [PK11195],protection
3,CCN(Cc1ccccc1)C(=O)Cn1c(=O)n(C)c2cnc(-c3ccccc3)nc21 [XBD173],protection
